# Assay results from the supplement of paper PMC8728848.
# The other results are listed elsewhere or left out.
# B1: Cohesin-marm-DC-ASGPR (protein)
# chain: LDITSHHHHHHDDLDAVRIKVDTVNAKPGDTVRIPVRFSGIPSKGIANCDFVYSYDPNVLEIIEIEPGDIIVDPNPDKSFDTAVYPDRKIIVFLFAEDSGTGAYAITKDGVFATIVAKVKEGAPNGLSVIKFVEVGGFANNDLVEQKTQFFDGGVNVGDTTEPATPTTPVTTPTTTDDLDAASSKFQRDLVTLRTDFSNFTSNTLAEIQALTSQGSSLQETIASLKAEVEGHKQELQAGASELQEHNKQKAHLGRCPHTCVCPSSFVCVPVHSEILLRVQQLVQDLNKLSCQVAILKNNATTERTCCPINWVEHQGSCYWFSRSGKTWPEAERYCQLENTHLVVINSREEQNFVQAHLGSAYTWMGLSDPEGVWKWVDGTDYSSGFQNWKPGQPDDWQGHGLGGGEDCAHFHPDGRWNDDVCQRSYHWVCEAGLTQASQDSHAS
# Legend:
# Test in all cases: glycan array binding signal (z-score within array); higher = stronger binding
# Details in all cases: glycan notation: IUPAC condensed, linker removed
# [1] = target: Neu5Ac(a2-6)Gal(b1-4)GlcNAc(b1-2)Man(a1-3)[Neu5Ac(a2-3)Gal(b1-4)GlcNAc(b1-2)Man(a1-6)]Man(b1-4)GlcNAc(b1-4)GlcNAc
# Procedure, shortened: (§1)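 The binding signal is a Z-score computed within each array and averaged over linkers. Arrays of the same protein sequence at different concentrations or buffers were also averaged together. Data originate from 3228 arrays in the Consortium for Functional Glycomics database, kept only where the protein sequence was available.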
# [2] = target: Neu5Ac(a2-6)Gal(b1-4)GlcNAc(b1-2)Man(a1-3)[Neu5Ac(a2-6)Gal(b1-4)GlcNAc(b1-2)Man(a1-6)]Man(b1-4)GlcNAc(b1-4)GlcNAc
# Procedure, shortened: as §1
# [3] = target: Neu5Ac(a2-6)Gal(b1-4)GlcNAc(b1-2)Man(a1-3)[Neu5Ac(a2-6)Gal(b1-4)GlcNAc(b1-2)Man(a1-6)]Man(b1-4)GlcNAc(b1-4)[Fuc(a1-6)]GlcNAc
# Procedure, shortened: as §1
# [4] = target: Neu5Ac(a2-6)Gal(b1-4)GlcNAc(b1-2)Man(a1-6)Man(b1-4)GlcNAc(b1-4)GlcNAc
# Procedure, shortened: as §1
# [5] = target: Neu5Ac(a2-6)Gal(b1-4)GlcNAc(b1-2)Man(a1-6)[Gal(b1-4)GlcNAc(b1-2)Man(a1-3)]Man(b1-4)GlcNAc(b1-4)GlcNAc
# Procedure, shortened: as §1
# [6] = target: Neu5Ac(a2-6)Gal(b1-4)GlcNAc(b1-2)Man(a1-6)[GlcNAc(b1-2)Man(a1-3)]Man(b1-4)GlcNAc(b1-4)GlcNAc
# Procedure, shortened: as §1
# [7] = target: Neu5Ac(a2-6)Gal(b1-4)GlcNAc(b1-2)Man(a1-6)[Man(a1-3)]Man(b1-4)GlcNAc(b1-4)GlcNAc
# Procedure, shortened: as §1
# [8] = target: Neu5Ac(a2-6)Gal(b1-4)GlcNAc(b1-2)[Neu5Ac(a2-6)Gal(b1-4)GlcNAc(b1-4)]Man(a1-3)[GlcNAc(b1-4)][Neu5Ac(a2-6)Gal(b1-4)GlcNAc(b1-2)[Neu5Ac(a2-6)Gal(b1-4)GlcNAc(b1-6)]Man(a1-6)]Man(b1-4)GlcNAc(b1-4)GlcNAc
# Procedure, shortened: as §1
# [9] = target: Neu5Ac(a2-6)Gal(b1-4)GlcNAc(b1-2)[Neu5Ac(a2-6)Gal(b1-4)GlcNAc(b1-4)]Man(a1-3)[GlcNAc(b1-4)][Neu5Ac(a2-6)Gal(b1-4)GlcNAc(b1-4)Man(a1-6)]Man(b1-4)GlcNAc(b1-4)GlcNAc
# Procedure, shortened: as §1
# [10] = target: Neu5Ac(a2-6)Gal(b1-4)GlcNAc(b1-2)[Neu5Ac(a2-6)Gal(b1-4)GlcNAc(b1-6)]Man(a1-6)[Neu5Ac(a2-6)Gal(b1-4)GlcNAc(b1-2)Man(a1-3)][GlcNAc(b1-4)]Man(b1-4)GlcNAc(b1-4)GlcNAc
# Procedure, shortened: as §1
# [11] = target: Neu5Ac(a2-6)Gal(b1-4)GlcNAc(b1-3)Gal(b1-3)GlcNAc
# Procedure, shortened: as §1
# [12] = target: Neu5Ac(a2-6)Gal(b1-4)GlcNAc(b1-3)Gal(b1-4)GlcNAc
# Procedure, shortened: as §1
# [13] = target: Neu5Ac(a2-6)Gal(b1-4)GlcNAc(b1-3)Gal(b1-4)GlcNAc(b1-2)Man(a1-3)[Neu5Ac(a2-6)Gal(b1-4)GlcNAc(b1-3)Gal(b1-4)GlcNAc(b1-2)Man(a1-6)]GalNAc
# Procedure, shortened: as §1
# [14] = target: Neu5Ac(a2-6)Gal(b1-4)GlcNAc(b1-3)Gal(b1-4)GlcNAc(b1-3)Gal(b1-4)GlcNAc
# Procedure, shortened: as §1
# [15] = target: Neu5Ac(a2-6)Gal(b1-4)GlcNAc(b1-3)Gal(b1-4)GlcNAc(b1-3)Gal(b1-4)GlcNAc(b1-2)Man(a1-3)[Neu5Ac(a2-6)Gal(b1-4)GlcNAc(b1-3)Gal(b1-4)GlcNAc(b1-3)Gal(b1-4)GlcNAc(b1-2)Man(a1-6)]GalNAc
# Procedure, shortened: as §1
# [16] = target: Neu5Ac(a2-6)Gal(b1-4)GlcNAc(b1-3)Gal(b1-4)GlcNAc(b1-3)GalNAc
# Procedure, shortened: as §1
# [17] = target: Neu5Ac(a2-6)Gal(b1-4)GlcNAc(b1-3)Gal(b1-4)GlcNAc(b1-3)[Neu5Ac(a2-6)Gal(b1-4)GlcNAc(b1-3)Gal(b1-4)GlcNAc(b1-6)]GalNAc
# Procedure, shortened: as §1
# [18] = target: Neu5Ac(a2-6)Gal(b1-4)GlcNAc(b1-3)Gal(b1-4)GlcNAc(b1-6)[Gal(b1-3)]GalNAc
# Procedure, shortened: as §1
# [19] = target: Neu5Ac(a2-6)Gal(b1-4)GlcNAc(b1-3)Gal(b1-4)[Fuc(a1-3)]GlcNAc(b1-3)Gal(b1-4)[Fuc(a1-3)]GlcNAc
# Procedure, shortened: as §1
# [20] = target: Neu5Ac(a2-6)Gal(b1-4)GlcNAc(b1-3)GalNAc
# Procedure, shortened: as §1
# [21] = target: Neu5Ac(a2-6)Gal(b1-4)GlcNAc(b1-3)[Neu5Ac(a2-6)Gal(b1-4)GlcNAc(b1-6)]GalNAc
# Procedure, shortened: as §1
# [22] = target: Neu5Ac(a2-6)Gal(b1-4)GlcNAc(b1-6)GalNAc
# Procedure, shortened: as §1
# [23] = target: Neu5Ac(a2-6)Gal(b1-4)GlcNAc(b1-6)[Gal(b1-3)GlcNAc(b1-3)]Gal(b1-4)Glc
# Procedure, shortened: as §1
# [24] = target: Neu5Ac(a2-6)Gal(b1-4)GlcNAc(b1-6)[Gal(b1-3)]GalNAc
# Procedure, shortened: as §1
# [25] = target: Neu5Ac(a2-6)Gal(b1-4)GlcNAc6S
# Procedure, shortened: as §1
# [26] = target: Neu5Ac(a2-6)GalNAc
# Procedure, shortened: as §1
# [27] = target: Neu5Ac(a2-6)GalNAc(b1-4)GlcNAc
# Procedure, shortened: as §1
# [28] = target: Neu5Ac(a2-6)GalNAc(b1-4)GlcNAc6S
# Procedure, shortened: as §1
# [29] = target: Neu5Ac(a2-6)GlcNAc(b1-4)GlcNAc
# Procedure, shortened: as §1
# [30] = target: Neu5Ac(a2-6)GlcNAc(b1-4)GlcNAc(b1-4)GlcNAc
# Procedure, shortened: as §1
binder,measurement,setting,value
B1,glycan array binding signal (z-score),[1],-0.295
same,glycan array binding signal (z-score),[2],-0.126
same,glycan array binding signal (z-score),[3],-0.299
same,glycan array binding signal (z-score),[4],-0.313
same,glycan array binding signal (z-score),[5],-0.303
same,glycan array binding signal (z-score),[6],-0.304
same,glycan array binding signal (z-score),[7],-0.314
same,glycan array binding signal (z-score),[8],-0.301
same,glycan array binding signal (z-score),[9],-0.239
same,glycan array binding signal (z-score),[10],-0.31
same,glycan array binding signal (z-score),[11],-0.302
same,glycan array binding signal (z-score),[12],-0.289
same,glycan array binding signal (z-score),[13],-0.285
same,glycan array binding signal (z-score),[14],-0.293
same,glycan array binding signal (z-score),[15],-0.208
same,glycan array binding signal (z-score),[16],-0.284
same,glycan array binding signal (z-score),[17],-0.295
same,glycan array binding signal (z-score),[18],-0.308
same,glycan array binding signal (z-score),[19],-0.307
same,glycan array binding signal (z-score),[20],-0.225
same,glycan array binding signal (z-score),[21],-0.309
same,glycan array binding signal (z-score),[22],-0.295
same,glycan array binding signal (z-score),[23],-0.222
same,glycan array binding signal (z-score),[24],-0.306
same,glycan array binding signal (z-score),[25],-0.297
same,glycan array binding signal (z-score),[26],0.569
same,glycan array binding signal (z-score),[27],0.541
same,glycan array binding signal (z-score),[28],-0.057
same,glycan array binding signal (z-score),[29],-0.313
same,glycan array binding signal (z-score),[30],-0.312
